According to the supplement of paper PMC11417369:
± gives the standard deviation of the averaged measurements. The list shows a part of the results.

System: PfAP2-EXP AP2 domain (GST-tagged)
Assay: gcPBM binding intensity (ln(normalized median fluorescence intensity)); higher = stronger DNA binding
How it was run: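 An Agilent 4 × 180k array of primer-extended double-stranded 36-bp intergenic genomic probes, with negative controls, was incubated for 1 h with GST-tagged P. falciparum DNA-binding domains expressed in E. coli. Alexa488 anti-GST antibody detected bound protein, scanned at 488 nm. Binding intensity is the highest Masliner-normalised natural-log median intensity across replicate spots of either probe orientation.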

| Sequence | gcPBM binding intensity (ln) |
| --- | --- |
| CATATACATTGTATATGTACATATATATATATATAT [XGTACX_site3772] | 10.1 ± 0.36 |
| TGATGCAAAATATATACACACATATATATATATATA [CACACA_site3052] | 10.1 ± 0.32 |
| TATACCACCCGATATACACACTTGTAGACATCTTTT [CACACA_site4268] | 8.6 ± 0.49 |
| TATGGGTTTATATAGGTGCAATATATGTATATATAA | 8.77 ± 0.13 |
| AACCATTGGGAAAGGGTGCACATATATATATATATA | 10.8 ± 0.35 |
| AGCAATATTTATTAAAGTACGTAAAAAAAATTCTCA [XGTACX_site6550] | 8.45 ± 0.53 |
| ACAAAACTCTTTAATTGTACAAATATAATATAAAAA [XGTACX_site5690] | 8.6 ± 0.39 |
| TATATAGTTTATATTTGTACATATAGACATTTATAA [XGTACX_site6414] | 8.23 ± 0.3 |
| TCTTATTATAAAAGGAGTACATCAATTAGATGTTCC [XGTACX_site8465] | 8.28 ± 0.33 |
| ATATATATATAATATTGTACATAGTAGACATCACAC [XGTACX_site4649] | 9.48 ± 0.27 |
| CAAAGCATAGTATGATGTACAAATGTTCCTATAATA [XGTACX_site8642] | 8.59 ± 0.39 |
| TTATGTTTATACACTACACACATTATTCATAAAAAA [CACACA_site4637] | 8.55 ± 0.31 |
| TAAAATATGGAAATCACACATTTATTAAAATATATA [CACACA_site4623] | 8.12 ± 0.39 |
| TATATATGTATAAGAGTGCATATGCATATATGTATA [GTGCAC_site9692] | 8.69 ± 0.17 |
| CATCTTAAATAAGAACGTACATTTTTTTTGATGAGA [XGTACX_site3462] | 8.23 ± 0.37 |
| AAGACAAAACAAAGAAGTACATATATATATATATAT [XGTACX_site4067] | 10.3 ± 0.4 |
| GGAGACTTTGTACAAACACACACATGAACACAATAT [CACACA_site8376] | 9.06 ± 0.55 |
| ATGTATATATTTATGTGTACTTAAATTTTTTTTTGT [XGTACX_site8179] | 8.28 ± 0.31 |
| TTTTAATATATAGAGTAACAAATTTGTCTATTAATA [CACACA_negctrl_site1495] | 8.41 ± 0.64 |
| TCTTCACCACGTGGAAGTACATAAAAAGATACACAA [XGTACX_site4747] | 8.93 ± 0.51 |
| TAATTTAAAAATGAACATATATATGTATGTAAATAT [TGCATGCA_negctrl_site135] | 8.98 ± 0.39 |
| ATACATTCTAATACGTGTACATATATATATATATAT [XGTACX_site1881] | 10.2 ± 0.28 |
| AATAATATTAACACACGTACAAAAGCAAACAACCAA [XGTACX_site7410] | 9.16 ± 0.55 |

| Sequence | gcPBM binding intensity (ln) |
| --- | --- |
| TTTATATTATTATATCTTATTAATTATTTATCATTT [TGCATGCA_negctrl_site73] | 8.12 ± 0.47 |
| ATAAAACAAAAACACACACACATACACAAAAAAAAA [CACACA_site3848] | 8.55 ± 0.54 |
| TGGGAAAAAATATATGCACACCCCCCAAAAAAAAAA [CACACA_site8696] | 11.1 ± 0.35 |
| AATTCTTTATTATATGCACACGTACATATAATATAT [CACACA_site8621] | 8.66 ± 0.24 |
| AAAAAATGTTATAAAAGTACATAATTTATCTACCAT [XGTACX_site3035] | 8.44 ± 0.12 |
| ATATACTGTATGAAAGCACACATACTTATTACTAAC [CACACA_site9384] | 8.45 ± 0.28 |
| TTTTTATATAATTTAACACACATTTCATATAAAAAA [CACACA_site3103] | 8.28 ± 0.42 |
| ATGTGAAAATAAGACACACTCAAAAGGTTTATATTA [CACACA_site4595] | 8.23 ± 0.4 |
| TTTAAAAAATAATATTGTACTATTCTCCCAATTTCT [XGTACX_site7079] | 8.23 ± 0.38 |
| TAACTTTGGAGGAGCTGTACGATTATTTTGATCCTT [XGTACX_site2514] | 8.41 ± 0.38 |
| AAAAAATTTCAAATAACACACACTAATATAAATATG [CACACA_site6783] | 8.54 ± 0.47 |
| AAGTTTTTTTTTATCACACACAAAAAAAAAAATATA [CACACA_site1362] | 8.32 ± 0.45 |
| AAAAAATGAAAAAACTGTACGCAATTTTGTTTTTAT [XGTACX_site2299] | 8.55 ± 0.29 |
| AAAAAAAAAAAAAAGTGTACCTTCAAAATAATATTG [XGTACX_site2844] | 8.4 ± 0.3 |
| ATAAATATAAAACACACACACATATTATATATATAT [CACACA_site3064] | 9.62 ± 0.13 |
| TCTTTCCTTATTAAAACACACAAATACATTATTTAA [CACACA_site2147] | 8.48 ± 0.41 |
| CCTTTTTCTACTTTCTCACACATATTAAGAATTATA [CACACA_site5621] | 8.87 ± 0.35 |
| CTATATATAACCCATGTGCACTTTTTATGTACAATA | 9.43 ± 0.085 |
| AAAACGCAGTTTAATATACACACCAAAAAAAAAAAA [CACACA_site3036] | 8.33 ± 0.52 |
| CACAAATATATACATACACACATATATACACATATA [CACACA_site8024] | 8.47 ± 0.34 |
| TTTGAGATGTGGTGTACACAAAATTAGGTACACATC [CACACA_site5773] | 8.92 ± 0.33 |
| ATATATATATATTTATGTACGCATTTATAGACGTAG [XGTACX_site6031] | 9.79 ± 0.26 |
